# Source: the supplement of paper PMC8728848
# The list shows a part of the results.
# B1: Gal 9 (Homo sapiens), O00182 (protein)
# chain: MAFSGSQAPYLSPAVPFSGTIQGGLQDGLQITVNGTVLSSSGTRFAVNFQTGFSGNDIAFHFNPRFEDGGYVVCNTRQNGSWGPEERKTHMPFQKGMPFDLCFLVQSSDFKVMVNGILFVQYFHRVPFHRVDTISVNGSVQLSYISFQNPRTVPVQPAFSTVPFSQPVCFPPRPRGRRQKPPGVWPANPAPITQTVIHTVQSAPGQMFSTPAIPPMMYPHPAYPMPFITTILGGLYPSKSILLSGTVLPSAQRFHINLCSGNHIAFHLNPRFDENAVVRNTQIDNSWGSEERSLPRKMPFVRGQSFSVWILCEAHCLKVAVDGQHLFEYYHRLRNLPTINRLEVGGDIQLTHVQT
# Legend:
# Experiment in all cases: glycan array binding signal (z-score within array); higher = stronger binding
# Conditions in all cases: glycan notation: IUPAC condensed, linker removed
# [1] = target: Fuc(a1-2)[GalNAc(a1-3)]Gal(b1-3)GlcNAc
# Method in brief: (§1)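 Glycan array data came from 3228 arrays in the Consortium for Functional Glycomics database, and only arrays with an available protein sequence were kept. Glycan names were put into IUPAC-condensed notation, and columns mapping to the same glycan were averaged. The binding signal is a within-array Z-score, averaged across arrays of one protein sequence run at different concentrations or buffers and across linkers. A negative Z-score can be read as non-binding.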
# [2] = target: Fuc(a1-2)[GalNAc(a1-3)]Gal(b1-3)GlcNAc(b1-2)Man(a1-3)[Fuc(a1-2)[GalNAc(a1-3)]Gal(b1-3)GlcNAc(b1-2)Man(a1-6)]Man(b1-4)GlcNAc(b1-4)GlcNAc
# Method in brief: as §1
# [3] = target: Fuc(a1-2)[GalNAc(a1-3)]Gal(b1-3)GlcNAc(b1-2)Man(a1-3)[Fuc(a1-2)[GalNAc(a1-3)]Gal(b1-3)GlcNAc(b1-2)Man(a1-6)]Man(b1-4)GlcNAc(b1-4)[Fuc(a1-6)]GlcNAc
# Method in brief: as §1
# [4] = target: Fuc(a1-2)[GalNAc(a1-3)]Gal(b1-3)GlcNAc(b1-3)GalNAc
# Method in brief: as §1
# [5] = target: Fuc(a1-2)[GalNAc(a1-3)]Gal(b1-3)GlcNAc(b1-6)GalNAc
# Method in brief: as §1
# [6] = target: Fuc(a1-2)[GalNAc(a1-3)]Gal(b1-4)Glc
# Method in brief: as §1
# [7] = target: Fuc(a1-2)[GalNAc(a1-3)]Gal(b1-4)GlcNAc
# Method in brief: as §1
# [8] = target: Fuc(a1-2)[GalNAc(a1-3)]Gal(b1-4)GlcNAc(b1-2)Man
# Method in brief: as §1
# [9] = target: Fuc(a1-2)[GalNAc(a1-3)]Gal(b1-4)GlcNAc(b1-2)Man(a1-3)[Fuc(a1-2)[GalNAc(a1-3)]Gal(b1-4)GlcNAc(b1-2)Man(a1-6)]Man(b1-4)GlcNAc(b1-4)GlcNAc
# Method in brief: as §1
# [10] = target: Fuc(a1-2)[GalNAc(a1-3)]Gal(b1-4)GlcNAc(b1-2)Man(a1-3)[Fuc(a1-2)[GalNAc(a1-3)]Gal(b1-4)GlcNAc(b1-2)Man(a1-6)]Man(b1-4)GlcNAc(b1-4)[Fuc(a1-6)]GlcNAc
# Method in brief: as §1
# [11] = target: Fuc(a1-2)[GalNAc(a1-3)]Gal(b1-4)GlcNAc(b1-3)Gal(b1-4)GlcNAc
# Method in brief: as §1
# [12] = target: Fuc(a1-2)[GalNAc(a1-3)]Gal(b1-4)GlcNAc(b1-3)Gal(b1-4)GlcNAc(b1-3)Gal(b1-4)GlcNAc
# Method in brief: as §1
# [13] = target: Fuc(a1-2)[GalNAc(a1-3)]Gal(b1-4)GlcNAc(b1-3)GalNAc
# Method in brief: as §1
# [14] = target: Fuc(a1-2)[GalNAc(a1-3)]Gal(b1-4)GlcNAc(b1-3)[Fuc(a1-2)[GalNAc(a1-3)]Gal(b1-4)GlcNAc(b1-6)]GalNAc
# Method in brief: as §1
# [15] = target: Fuc(a1-2)[GalNAc(a1-3)]Gal(b1-4)GlcNAc(b1-6)GalNAc
# Method in brief: as §1
# [16] = target: Fuc(a1-2)[GalNAc(a1-3)]Gal(b1-4)[Fuc(a1-3)]GlcNAc
# Method in brief: as §1
# [17] = target: Fuc(a1-2)[GalNAc(a1-3)]Gal(b1-4)[Fuc(a1-3)]GlcNAc(b1-3)GalNAc
# Method in brief: as §1
# [18] = target: Fuc(a1-2)[GalNAc(a1-4)]Gal(b1-4)GlcNAc
# Method in brief: as §1
# [19] = target: Fuc(a1-2)[GalNAc(b1-3)]Gal
# Method in brief: as §1
# Fuc(a1-3)GlcNAc = target: Fuc(a1-3)GlcNAc
# Method in brief: as §1
# [20] = target: Fuc(a1-3)[Gal(b1-4)]Glc6S
# Method in brief: as §1
# [21] = target: Fuc(a1-3)[Gal(b1-4)]GlcNAc
# Method in brief: as §1
# [22] = target: Fuc(a1-3)[Gal(b1-4)]GlcNAc(b1-2)Man
# Method in brief: as §1
# [23] = target: Fuc(a1-3)[Gal(b1-4)]GlcNAc(b1-2)Man(a1-3)[Fuc(a1-3)[Gal(b1-4)]GlcNAc(b1-2)Man(a1-6)]Man(b1-4)GlcNAc(b1-4)GlcNAc
# Method in brief: as §1
# [24] = target: Fuc(a1-3)[Gal(b1-4)]GlcNAc(b1-2)Man(a1-3)[Fuc(a1-3)[Gal(b1-4)]GlcNAc(b1-2)Man(a1-6)]Man(b1-4)GlcNAc(b1-4)[Fuc(a1-6)]GlcNAc
# Method in brief: as §1
# [25] = target: Fuc(a1-3)[Gal(b1-4)]GlcNAc(b1-3)Gal(b1-3)[Fuc(a1-4)]GlcNAc
# Method in brief: as §1
# [26] = target: Fuc(a1-3)[Gal(b1-4)]GlcNAc(b1-3)GalNAc
# Method in brief: as §1
# [27] = target: Fuc(a1-3)[Gal(b1-4)]GlcNAc(b1-4)Gal(b1-4)[Fuc(a1-3)]GlcNAc
# Method in brief: as §1
# [28] = target: Fuc(a1-3)[Gal(b1-4)]GlcNAc(b1-4)Gal(b1-4)[Fuc(a1-3)]GlcNAc(b1-4)Gal(b1-4)[Fuc(a1-3)]GlcNAc
# Method in brief: as §1
# [29] = target: Fuc(a1-3)[Gal(b1-4)]GlcNAc(b1-6)GalNAc
# Method in brief: as §1
# [30] = target: Fuc(a1-3)[Gal(b1-4)]GlcNAc(b1-6)[Gal(b1-3)GlcNAc(b1-3)]Gal(b1-4)Glc
# Method in brief: as §1
# [31] = target: Fuc(a1-3)[Gal(b1-4)]GlcNAc6S
# Method in brief: as §1
# [32] = target: Fuc(a1-3)[Gal3S(b1-4)]Glc
# Method in brief: as §1
# [33] = target: Fuc(a1-3)[Gal3S(b1-4)]GlcNAc
# Method in brief: as §1
# [34] = target: Fuc(a1-3)[Gal3S(b1-4)]GlcNAc6S
# Method in brief: as §1
# [35] = target: Fuc(a1-3)[GalNAc(b1-4)]GlcNAc
# Method in brief: as §1
# [36] = target: Fuc(a1-3)[GalNAc(b1-4)]GlcNAc6S
# Method in brief: as §1
binder,measurement,setting,value
B1,glycan array binding signal (z-score),[1],0.055
same,glycan array binding signal (z-score),[2],1.63
same,glycan array binding signal (z-score),[3],3.85
same,glycan array binding signal (z-score),[4],-0.18
same,glycan array binding signal (z-score),[5],1.79
same,glycan array binding signal (z-score),[6],0.482
same,glycan array binding signal (z-score),[7],0.325
same,glycan array binding signal (z-score),[8],1.99
same,glycan array binding signal (z-score),[9],4.39
same,glycan array binding signal (z-score),[10],0.54
same,glycan array binding signal (z-score),[11],1.49
same,glycan array binding signal (z-score),[12],1.85
same,glycan array binding signal (z-score),[13],-0.298
same,glycan array binding signal (z-score),[14],0.963
same,glycan array binding signal (z-score),[15],-0.097
same,glycan array binding signal (z-score),[16],-0.32
same,glycan array binding signal (z-score),[17],-0.288
same,glycan array binding signal (z-score),[18],-0.306
same,glycan array binding signal (z-score),[19],-0.311
same,glycan array binding signal (z-score),Fuc(a1-3)GlcNAc,-0.32
same,glycan array binding signal (z-score),[20],-0.321
same,glycan array binding signal (z-score),[21],-0.315
same,glycan array binding signal (z-score),[22],-0.258
same,glycan array binding signal (z-score),[23],-0.321
same,glycan array binding signal (z-score),[24],-0.283
same,glycan array binding signal (z-score),[25],-0.31
same,glycan array binding signal (z-score),[26],-0.308
same,glycan array binding signal (z-score),[27],-0.303
same,glycan array binding signal (z-score),[28],-0.332
same,glycan array binding signal (z-score),[29],-0.299
same,glycan array binding signal (z-score),[30],-0.236
same,glycan array binding signal (z-score),[31],-0.311
same,glycan array binding signal (z-score),[32],-0.295
same,glycan array binding signal (z-score),[33],-0.318
same,glycan array binding signal (z-score),[34],-0.225
same,glycan array binding signal (z-score),[35],-0.31
same,glycan array binding signal (z-score),[36],-0.297
